Laboratory results from patent publication US20230250147A1, “GLP-1R AGONISTIC PEPTIDES WITH REDUCED ACTIVITY” (SANOFI, priority 2020, published 2023).

T1: Mouse GLP-1R (Mus musculus, UniProt O35659)
T1 construct: expressed in transfected cells; host or cells: HEK-293
T1 sequence (O35659 22-463): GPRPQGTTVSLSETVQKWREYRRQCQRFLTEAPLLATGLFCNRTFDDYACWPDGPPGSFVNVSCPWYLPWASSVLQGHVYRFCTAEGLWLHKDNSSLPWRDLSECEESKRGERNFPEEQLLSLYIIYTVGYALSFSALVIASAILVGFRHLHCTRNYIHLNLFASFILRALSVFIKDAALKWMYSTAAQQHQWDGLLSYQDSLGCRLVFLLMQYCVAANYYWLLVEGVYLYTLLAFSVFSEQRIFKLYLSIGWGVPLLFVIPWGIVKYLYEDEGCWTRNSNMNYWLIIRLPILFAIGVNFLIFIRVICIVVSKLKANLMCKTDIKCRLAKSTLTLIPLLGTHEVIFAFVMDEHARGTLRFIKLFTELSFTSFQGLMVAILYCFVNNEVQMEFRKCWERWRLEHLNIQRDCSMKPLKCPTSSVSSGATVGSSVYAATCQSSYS

B1: 193 (protein)
chain: HGEGTFTSDLSKQLEKELVRLFYEWLINGGHSSQKPPPKGGGGGGGSGGGGSGGGGSA[… human IgG4 Fc with changes …]GGGSGSAHPIPDSSPLLQFGGQVRQRYLYTDDACQTEAHLEIREDGTVGGAADQSPESLLQLKALKPGVIQILGVKTSRFLCQRPDGALYGSLHFDPEACSFRELLLEDGYNVYQSEAHGLPLHLPGCKSPHRDPAPRGPARFLPLPGLPPAPPEPPGILAPQPPDVGSSDPLSMVGSQGRSPSYAS
modifications: Fusion Protein
B2: 195 (protein)
chain: HGEGTFTSDLSKQLEKELVRLFYEWLINGGHSKGKPPPKGGGGGGGSGGGGSGGGGSA[… human IgG4 Fc with changes …]GGGSGSAHPIPDSSPLLQFGGQVRQRYLYTDDACQTEAHLEIREDGTVGGAADQSPESLLQLKALKPGVIQILGVKTSRFLCQRPDGALYGSLHFDPEACSFRELLLEDGYNVYQSEAHGLPLHLPGCKSPHRDPAPRGPARFLPLPGLPPAPPEPPGILAPQPPDVGSSDPLSMVGSQGRSPSYAS
modifications: Fusion Protein
B3: 196 (protein)
chain: HGEGTFTSDLSKQLEKELVRLFYEWLINGGPSSGKPPPKGGGGGGGSGGGGSGGGGSA[… human IgG4 Fc with changes …]GGGSGSAHPIPDSSPLLQFGGQVRQRYLYTDDACQTEAHLEIREDGTVGGAADQSPESLLQLKALKPGVIQILGVKTSRFLCQRPDGALYGSLHFDPEACSFRELLLEDGYNVYQSEAHGLPLHLPGCKSPHRDPAPRGPARFLPLPGLPPAPPEPPGILAPQPPDVGSSDPLSMVGSQGRSPSYAS
modifications: Fusion Protein
B4: 197 (protein)
chain: HGEGTFTSDLSKQLEKELVRLFYEWLINGGHSSGKPPPKGGGGGGGSGGGGSGGGGSA[… human IgG4 Fc with changes …]GGGSGSAHPIPDSSPLLQFGGQVRQRYLYTDDACQTEAHLEIREDGTVGGAADQSPESLLQLKALKPGVIQILGVKTSRFLCQRPDGALYGSLHFDPEACSFRELLLEDGYNVYQSEAHGLPLHLPGCKSPHRDPAPRGPARFLPLPGLPPAPPEPPGILAPQPPDVGSSDPLSMVGSQGRSPSYAS
modifications: Fusion Protein
B5: 198 (protein)
chain: HGEGTFTSDLSKQLEKELVRLFYEWLIAGGHSSQRPPPKGGGGGGGSGGGGSGGGGSA[… human IgG4 Fc with changes …]GGGSGSAHPIPDSSPLLQFGGQVRQRYLYTDDACQTEAHLEIREDGTVGGAADQSPESLLQLKALKPGVIQILGVKTSRFLCQRPDGALYGSLHFDPEACSFRELLLEDGYNVYQSEAHGLPLHLPGCKSPHRDPAPRGPARFLPLPGLPPAPPEPPGILAPQPPDVGSSDPLSMVGSQGRSPSYAS
modifications: Fusion Protein
B6: 199 (protein)
chain: HGEGTFTSDLSKQLEKELVRLFYEWLKAGGHSSGKPPPKGGGGGGGSGGGGSGGGGSA[… human IgG4 Fc with changes …]GGGSGSAHPIPDSSPLLQFGGQVRQRYLYTDDACQTEAHLEIREDGTVGGAADQSPESLLQLKALKPGVIQILGVKTSRFLCQRPDGALYGSLHFDPEACSFRELLLEDGYNVYQSEAHGLPLHLPGCKSPHRDPAPRGPARFLPLPGLPPAPPEPPGILAPQPPDVGSSDPLSMVGSQGRSPSYAS
modifications: Fusion Protein
B7: 200 (protein)
chain: HGEGTFTSDLSKQLEKELVRLFYEWLIKGGHSSGRPPPKGGGGGGGSGGGGSGGGGSA[… human IgG4 Fc with changes …]GGGSGSAHPIPDSSPLLQFGGQVRQRYLYTDDACQTEAHLEIREDGTVGGAADQSPESLLQLKALKPGVIQILGVKTSRFLCQRPDGALYGSLHFDPEACSFRELLLEDGYNVYQSEAHGLPLHLPGCKSPHRDPAPRGPARFLPLPGLPPAPPEPPGILAPQPPDVGSSDPLSMVGSQGRSPSYAS
modifications: Fusion Protein
B8: 201 (protein)
chain: HGEGTFTSDLSKQLEKELVRLFYEWLIKGGHSSQKPPPKGGGGGGGSGGGGSGGGGSA[… human IgG4 Fc with changes …]GGGSGSAHPIPDSSPLLQFGGQVRQRYLYTDDACQTEAHLEIREDGTVGGAADQSPESLLQLKALKPGVIQILGVKTSRFLCQRPDGALYGSLHFDPEACSFRELLLEDGYNVYQSEAHGLPLHLPGCKSPHRDPAPRGPARFLPLPGLPPAPPEPPGILAPQPPDVGSSDPLSMVGSQGRSPSYAS
modifications: Fusion Protein
B9: 202 (protein)
chain: HGEGTFTSDLSKQLEKELVRLFYEWLIKGGHSSIKPPPKGGGGGGGSGGGGSGGGGSA[… human IgG4 Fc with changes …]GGGSGSAHPIPDSSPLLQFGGQVRQRYLYTDDACQTEAHLEIREDGTVGGAADQSPESLLQLKALKPGVIQILGVKTSRFLCQRPDGALYGSLHFDPEACSFRELLLEDGYNVYQSEAHGLPLHLPGCKSPHRDPAPRGPARFLPLPGLPPAPPEPPGILAPQPPDVGSSDPLSMVGSQGRSPSYAS
modifications: Fusion Protein
B10: 203 (protein)
chain: HGEGTFTSDLSKQLEKELVRLFYEWLIKGGHKSGKPPPKGGGGGGGSGGGGSGGGGSA[… human IgG4 Fc with changes …]GGGSGSAHPIPDSSPLLQFGGQVRQRYLYTDDACQTEAHLEIREDGTVGGAADQSPESLLQLKALKPGVIQILGVKTSRFLCQRPDGALYGSLHFDPEACSFRELLLEDGYNVYQSEAHGLPLHLPGCKSPHRDPAPRGPARFLPLPGLPPAPPEPPGILAPQPPDVGSSDPLSMVGSQGRSPSYAS
modifications: Fusion Protein
B11: 204 (protein)
chain: HGEGTFTSDLSKQLEKELVRLFYEWLIKGGHSKGKPPPKGGGGGGGSGGGGSGGGGSA[… human IgG4 Fc with changes …]GGGSGSAHPIPDSSPLLQFGGQVRQRYLYTDDACQTEAHLEIREDGTVGGAADQSPESLLQLKALKPGVIQILGVKTSRFLCQRPDGALYGSLHFDPEACSFRELLLEDGYNVYQSEAHGLPLHLPGCKSPHRDPAPRGPARFLPLPGLPPAPPEPPGILAPQPPDVGSSDPLSMVGSQGRSPSYAS
modifications: Fusion Protein
B12: 205 (protein)
chain: HGEGTFTSDLSKQLEKELVRLFYEWLIAGGHKSQKPPPKGGGGGGGSGGGGSGGGGSA[… human IgG4 Fc with changes …]GGGSGSAHPIPDSSPLLQFGGQVRQRYLYTDDACQTEAHLEIREDGTVGGAADQSPESLLQLKALKPGVIQILGVKTSRFLCQRPDGALYGSLHFDPEACSFRELLLEDGYNVYQSEAHGLPLHLPGCKSPHRDPAPRGPARFLPLPGLPPAPPEPPGILAPQPPDVGSSDPLSMVGSQGRSPSYAS
modifications: Fusion Protein

target: T1, Mouse GLP-1R; experiment: HTRF cAMP assay in HEK-293 cells, mouse GLP-1R; format: cell-based
Protocol: (§1) Recombinant HEK-293 cells were grown in T175 culture flasks placed at 37° C. to near confluence in medium (DMEM with 10% FBS) and collected in 2 mL vials in cell culture medium containing 10% DMSO in concentrations of 1-5×10^7 cells/mL. Each vial contained 1.8 mL cell suspension. The vials were slowly frozen to −80° C. in an isopropanol chamber, and then transferred to liquid nitrogen for long term storage.
(§2) Prior to their use, frozen cells were thawed quickly at 37° C., washed with 20 mL cell buffer (1×HBSS; 20 mM HEPES, 0.1% BSA) and centrifuged for 5 minutes at 900 rpm. Cells were resuspended in assay buffer (cell buffer plus 2 mM IBMX) and adjusted to a cell density of 1×10^6 cells/mL. For measurement, 5 μL cell suspension (final 5×10^3 cells/well) and 5 μL of test compound were added to a well of a 384-well plate, followed by incubation for 30 minutes at room temperature. […] The cAMP content of cells was determined using a kit from Cisbio Corp. (cat. no. 62AM4PEC) based on Homogenous Time Resolved Fluorescence (HTRF).

Molecule | EC50 [nM]
B1 | 0.0713
B2 | 0.0566
B3 | 0.0317
B4 | 0.048
B5 | 0.0651
B6 | 0.153
B7 | 0.0462
B8 | 0.0698
B9 | 0.0717
B10 | 0.0892
B11 | 0.0657
B12 | 0.127

target: T2, Human GLP-1R (Homo sapiens, UniProt P43220); experiment: HTRF cAMP assay in HEK-293 cells, human GLP-1R; format: cell-based
T2 construct: expressed in transfected cells; host or cells: HEK-293
T2 sequence (P43220 24-463): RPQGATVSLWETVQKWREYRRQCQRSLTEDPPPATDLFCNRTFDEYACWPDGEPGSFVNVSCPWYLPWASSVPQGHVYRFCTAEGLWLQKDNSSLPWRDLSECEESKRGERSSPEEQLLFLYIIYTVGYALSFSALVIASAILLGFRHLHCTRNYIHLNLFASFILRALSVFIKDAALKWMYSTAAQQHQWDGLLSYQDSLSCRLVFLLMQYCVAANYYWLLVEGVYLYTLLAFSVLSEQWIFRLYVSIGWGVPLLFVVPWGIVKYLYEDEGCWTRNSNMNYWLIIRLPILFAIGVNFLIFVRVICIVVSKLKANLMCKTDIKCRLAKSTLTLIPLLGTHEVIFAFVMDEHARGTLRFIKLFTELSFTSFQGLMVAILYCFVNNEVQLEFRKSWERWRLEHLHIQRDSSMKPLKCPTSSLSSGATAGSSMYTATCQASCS

Molecule | EC50 [nM]
B1 | 0.108
B2 | 0.0745
B3 | 0.0753
B4 | 0.0683
B5 | 0.0865
B6 | 0.163
B7 | 0.0731
B8 | 0.101
B9 | 0.101
B10 | 0.0969
B11 | 0.103
B12 | 0.131

target: T3, Monkey GLP-1R (Macaca fascicularis, UniProt F8V479); experiment: HTRF cAMP assay in HEK-293 cells, monkey GLP-1R; format: cell-based
T3 construct: expressed in transfected cells; host or cells: HEK-293
T3 sequence (F8V479 24-463): as the sequence (P43220 24-463) above, with S112N, F120S, S202G, L205V, L237F, W241R, I249V counted along it
Protocol: as §1, §2

Molecule | EC50 [nM]
B1 | 0.151
B2 | 0.0718
B3 | 0.127
B4 | 0.102
B5 | 0.0869
B6 | 0.231
B7 | 0.111
B8 | 0.0986
B9 | 0.128
B10 | 0.102
B11 | 0.0935
B12 | 0.113
